# Results taken from publication PMC6212790.
# The list shows a part of the results. At the low end of the ranking the order means little.
# Target: T1, GST-Rok (full length) (UniProt O34857)
# T1 sequence: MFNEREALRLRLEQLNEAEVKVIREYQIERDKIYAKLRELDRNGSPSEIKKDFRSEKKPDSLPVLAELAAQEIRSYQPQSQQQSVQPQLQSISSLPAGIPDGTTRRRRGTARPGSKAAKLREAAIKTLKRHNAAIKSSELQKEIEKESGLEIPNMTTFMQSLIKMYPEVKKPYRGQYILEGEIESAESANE
# Experiment: protein binding microarray;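 note: rank score from −0.5 (least bound) to 0.5 (best bound)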
# Details: Rok is a gene silencer of Bacillus subtilis; high values mean tight binding; most listed sequences are background and not binding sites; double strand, one strand shown
row,Sequence,binding signal [E-score]
1,CGCAGAGA,-0.228
2,GAGTACTC,-0.117
3,AGGGCGAT,-0.22
4,AGACGCCC,-0.302
5,AACTCTCA,0.153
6,CGCATTTA,0.177
7,AAGCAAGT,0.0333
8,AATAATGG,0.103
9,TCTGTCCA,-0.0557
10,ATTGACGG,-0.0146
11,ATGGAACC,-0.105
12,ACGAGTGG,-0.0627
13,GACGACAC,-0.185
14,ATTATCGA,0.262
15,ATAAAAAT,0.171
16,CACCTACA,0.0695
17,AGGCGAGG,-0.352
18,AATGACGT,0.0771
19,GGTCGTCA,-0.161
20,GGGCACAA,-0.0531
21,CATCTGAA,-0.0979
22,TACTCAGA,0.161
23,TAGTCCAA,-0.00106
24,AAAGTGCC,-0.299
25,ATAATAAT,0.372

row,Sequence,binding signal [E-score]
1,ACGACCGC,0.0315
2,TGCGAAAA,-0.00761
3,ATTCCTTA,-0.127
4,GAAGTCGC,-0.192
5,AAGGACTT,-0.169
6,CGCACCCA,-0.0894
7,CGTCGATC,-0.13
8,CGTGGAAG,-0.188
9,GGAAACCC,-0.314
10,CCTCAAGC,-0.224
11,ACTCCTGA,-0.121
12,CAAGTCTA,-0.053
13,ACGATATC,0.252
14,AAGGCACA,-0.233
15,GAAAAACC,-0.115
16,AGTAAACG,0.101
17,CGTGGCGA,-0.254
18,ATCTGACC,0.0454
19,ACGCAATA,0.202
20,GCGCGTAA,0.136
21,AGACCCTA,-0.163
22,TAAGGCGA,-0.035
23,ACAGCAGG,-0.205
24,AAGAGGAA,-0.19
25,ACTTTCGG,-0.192

row,Sequence,binding signal [E-score]
1,AGCGCGCA,0.0114
2,GCGGCTAA,-0.0978
3,GAGGTATA,0.161
4,ACGTGGCA,-0.184
5,CGACAACG,-0.167
6,CGGTTAAG,0.0308
7,CTGCTATA,0.0937
8,CGACCTGA,-0.0268
9,AGACTAAC,-0.0122
10,AACACTGA,-0.0136
11,GTGTTGAA,0.102
12,AATTTTCT,0.232
13,ATTATCTG,0.284
14,ACATGTGA,0.0741
15,GCGCGTAC,-0.0999
16,GACTACGC,0.0227
17,AACGCACG,-0.176
18,AATTCTAT,0.31
19,AAGAATTG,0.0616
20,ACTGGGCG,-0.192
21,CCTTGCCA,-0.197
22,AACAGTCA,-0.073
23,AGCATTAC,0.0579
24,GGCTCCGA,-0.283
25,CGGATCCA,-0.173

row,Sequence,binding signal [E-score]
1,ATTGGTAC,0.289
2,ACCCCGGA,-0.255
3,TAGCGCTA,0.101
4,CAATCATG,0.0159
5,AGATAAAG,0.119
6,TTATCAAA,0.162
7,GATGCTAA,0.0177
8,CTGGACAG,-0.126
9,AGGATGAG,-0.0521
10,ATGTTTGC,0.107
11,ATCTCTGA,-0.0215
12,AATCTCGC,0.173
13,AAAACCGT,-0.126
14,TGCTTAAA,0.0507
15,GAGCTGGA,-0.00746
16,ACCCCGAC,-0.0318
17,ATCGCGAA,0.17
18,AGTGCCGA,-0.184
19,AAACTCGG,0.063
20,TACGACTA,0.159
21,CGATACAG,-0.0138
22,ACGTGAGT,0.0378
23,GAGGATGA,-0.299
24,TACCAGTA,0.28
25,GAGTTTAA,0.0608

row,Sequence,binding signal [E-score]
1,CGCCAGCA,-0.0358
2,GCTCGATA,0.0812
3,GAGATCTC,-0.133
4,CAGGAGCC,-0.32
5,CTCAACAG,-0.0757
6,TGCGCCCA,-0.193
7,ATTTCAGG,-0.225
8,TCTCATAA,0.0733
9,ACTCCAGA,-0.119
10,TACTAAGA,0.229
11,GGTTAGAC,-0.117
12,GGACGGTA,0.148
13,GATCTGAA,-0.0373
14,AGTAACCG,-0.0688
15,AAGTCAAA,-0.0079
16,CCCCACCA,-0.354
17,GATGCGTA,0.0578
18,GTTTGCAA,0.127
19,AGACACCA,-0.179
20,GAAATGAC,-0.00813
21,TAAACTTA,0.169
22,GTGCTGTA,0.168
23,ATAACAAT,0.266
24,AAAGGTAA,0.0103
25,CCGACCGG,-0.328

row,Sequence,binding signal [E-score]
1,GCGTAACC,-0.0842
2,CGGCGCTA,0.0242
3,GGGGAGTA,-0.322
4,CCCGCAGA,-0.319
5,CAGAATGA,0.0403
6,CTACCGTC,0.292
7,TCGCTCCA,-0.17
8,CTCTAAAA,-0.0618
9,CGCAGTAC,-0.0857
10,GCCGGGCC,-0.387
11,ATGAGCAG,0.0195
12,AGCTCACA,0.046
13,AGAGAAAA,0.0804
14,CACGGGTA,-0.0654
15,AAACCTTG,-0.08
16,GAAGAGTA,0.266
17,ATGGTGAC,-0.134
18,TAGCTCCA,0.0619
19,AGATCGGG,-0.152
20,ACTCGACC,-0.105
21,CTAGCCGA,-0.199
22,CCTGGAGA,-0.166
23,TCATTACA,0.288
24,GGTCACAC,-0.237
25,CTTGAACA,-0.0935

row,Sequence,binding signal [E-score]
1,ACTGGTAC,0.152
2,AACGGTAA,0.258
3,ACCCCTGG,-0.181
4,CTCCCAAA,-0.262
5,GCACCGCA,-0.101
6,GGCAGCCA,-0.303
7,AACTATGT,0.249
8,CTTACATC,0.134
9,GCCAGCAC,-0.161
10,AATTTGCT,0.143
11,GTAAAGCA,0.122
12,CTGAGGGC,-0.398
13,CGTGAACG,-0.114
14,TTAAGCAA,0.0968
15,CATGATGG,-0.0546
16,CGTGCAAC,0.00648
17,TACATAGA,0.189
18,GCACCTGC,-0.304
19,ATGTAAGG,-0.097
20,CCCAAGTA,0.0557
21,AGATGCAT,0.0869
22,GCCGAGAA,-0.0654
23,AGCTTCCC,-0.227
24,CCACGTTC,-0.148
25,ACTGTAGG,0.21

row,Sequence,binding signal [E-score]
1,GGTCCAAA,-0.0963
2,TCCGCCCA,-0.309
3,ATATGTTA,0.395
4,ACCGTATA,0.212
5,GAGCCAAC,-0.28
6,AAATAACG,0.161
7,ACACAACA,0.07
8,ACAAACGA,0.0582
9,CCCCTGCC,-0.428
10,ACAGAGCT,0.014
11,GCGTCAGA,-0.0609
12,ATAGGACC,0.0661
13,CAGTAACA,0.0586
14,CTGGAACA,-0.0188
15,AGCGGTCG,-0.199
16,CAGAAAAG,0.0786
17,GAACCAAA,-0.168
18,GATGAAAC,-0.0235
19,TCTAGCCA,0.0153
20,CATAACGG,0.000347
21,TCAGTAGA,0.168
22,CCTCTATA,0.0395
23,GGACAATA,-0.00756
24,GTCTTGTA,0.112
25,AGTTGCAA,0.224

row,Sequence,binding signal [E-score]
1,CACTAGAG,-0.0165
2,GTCAGCAA,-0.0851
3,CACGAAAA,-0.0543
4,TGGATACA,0.0909
5,CTGGACGA,-0.185
6,CTGGAAAA,0.00214
7,GATCTACA,0.369
8,CCAGAAAG,-0.134
9,GCCCTCGC,-0.356
10,CGGAGTTA,-0.0511
11,AGCCAAGG,-0.236
12,CTAAGCGC,-0.287
13,GACGGCCA,-0.223
14,CCTGCTTA,-0.0682
15,ATAGAGCA,-0.0567
16,CAGTGCCA,-0.063
17,ATCAGCAT,0.0127
18,CGTTAGTA,0.294
19,GATTAGCA,-0.0882
20,AGCAGGGA,-0.258
21,AATAACTG,0.195
22,AATGAGGA,-0.277
23,ACTGGCCT,-0.307
24,ATGGCTAC,-0.041
25,AGTAACAT,0.242

row,Sequence,binding signal [E-score]
1,CAGTCAAA,-0.0848
2,AAACACAT,0.0776
3,AGATGGCA,-0.192
4,CGCAATTC,0.137
5,CACTAGTA,0.205
6,ACATTAGC,0.0617
7,AATAATTA,0.271
8,AAACTACC,0.475
9,TCCTGAGA,-0.138
10,GCCCCTTA,-0.367
11,AGTTTCCC,-0.106
12,ACGATTTA,0.205
13,GGGTAGCA,-0.00107
14,AAGAAGGT,-0.0806
15,CACACTAC,0.276
16,AGAAACGC,0.00202
17,ATCTTTAC,0.185
18,TAGGAAGA,0.116
19,CTAGGTAC,0.156
20,GGAGACCA,-0.109
21,AGTACGTG,0.0625
22,ATCACCGG,-0.0846
23,ATTTAAAG,0.00886
24,GACCTTAA,0.0835
25,ACCTACTC,0.0245

row,Sequence,binding signal [E-score]
1,CTCCTCTC,-0.241
2,ACGTGTGA,0.065
3,CGCGCCCC,-0.376
4,AGGGCGGA,-0.341
5,CTTCTACA,0.312
6,CTAGATTC,0.209
7,GCCTAACA,-0.0735
8,CGTACAAG,0.121
9,AATTCTCA,0.0302
10,GGCTTTCA,-0.186
11,GAGTTCGC,-0.0601
12,ACTATAAG,0.268
13,CAATCATC,-0.219
14,CATGTCTC,-0.079
15,TATAACCA,0.27
16,CGCGCTAG,-0.013
17,CTTTGTCC,-0.1
18,AAGTTAGC,0.0629
19,GGAACGGA,-0.372
20,GGAGTAAA,-0.112
21,TGGCTAAA,0.0785
22,GACAGGGA,-0.0461
23,GGTGAGAC,-0.0921
24,AAGAGGTG,0.0615
25,GGGATCGA,-0.152

row,Sequence,binding signal [E-score]
1,AGGTTTGA,-0.0183
2,AGCAGGGG,-0.17
3,AAACCGCG,-0.0168
4,ACTCATAA,0.0503
5,AAACCTCT,-0.01
6,AACGACGG,-0.036
7,AAGAGCCC,-0.349
8,CGCGGGCA,-0.233
9,CAAGGTTC,-0.152
10,GACAAATC,-0.0534
11,CCGCGACA,-0.0846
12,CGACGCCC,-0.42
13,TCTCGAGA,0.0626
14,GATCGTAC,0.097
15,ACCCATGC,-0.259
16,CACCGATG,-0.0374
17,CCTTACCG,0.0725
18,ACTCCAAT,0.00426
19,CGGTACGA,-0.191
20,CAAATCGA,0.0608
21,ACACTAAG,0.0184
22,CACTCATG,-0.211
23,GAACAAGA,-0.0934
24,ATCTCTAA,0.0544
25,AAGCGATG,-0.0486

row,Sequence,binding signal [E-score]
1,GATGTACA,0.282
2,AGCGCAGA,-0.24
3,AGAAGTTG,0.0065
4,AGAAATCG,-0.0862
5,ACTGCTCC,-0.0985
6,ATGTGAAA,0.138
7,AAGATTCG,-0.0404
8,ACCAGTAG,0.308
9,ATCCAAGG,-0.172
10,CGGAGAGA,-0.157
11,GAGTATAC,0.223
12,ACGGCTAG,0.129
13,CCCTGCGG,-0.313
14,GTAAGAGA,-0.0178
15,GGCTGTAA,0.115
16,AGTCGAAT,-0.204
17,AACTATCA,0.417
18,CTGCCTTC,-0.18
19,CCCAACGG,-0.0858
20,ATTTGGCA,-0.0153
21,GAGTCCAC,-0.263
22,GACTAACA,-0.064
23,CTCCTTTA,-0.314
24,GATAGCAC,0.149
25,ACAAGGTC,-0.165

row,Sequence,binding signal [E-score]
1,AGAAGCCT,-0.216
2,GTGGTAAC,0.0764
3,AATCCGAC,-0.25
4,ACCGTTGG,-0.187
5,AAACTGGT,0.0427
6,AATCCACA,0.118
7,CGACCCCC,-0.316
8,ACTGTCGC,-0.108
9,CATTAATC,0.219
10,CTGAACTA,0.203
11,CGAACAAC,-0.0234
12,AGCTCAAG,-0.0985
13,TGCTTCCA,-0.351
14,CGTCATGA,-0.0325
15,ACCCTCGG,-0.309
16,TTCAAAAA,-0.0631
17,AAGGACAT,-0.14
18,CGGTCTAC,0.00728
19,CGTGCGAC,-0.0915
